Test results: the supplement of paper PMC11417369
This is one part of the list.

These sequences were tested on PfSIP2 AP2 domain 1 (GST-tagged) (assay: gcPBM binding intensity (ln(normalized median fluorescence intensity)); higher = stronger DNA binding).
Procedure, shortened: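 DNA-binding domains from P. falciparum, fused to GST and produced in E. coli, were put on an Agilent 4 × 180k double-stranded probe array for 1 h in 1× PBS holding 1% milk, 0.2 mg/ml BSA, 0.5% salmon testes DNA and 0.03% Triton X-100. Probes were primer-extended, 36 bp long and drawn from intergenic genomic regions, with negative controls included. After Alexa488 anti-GST antibody detection and a 488 nm scan, binding intensity was set as the highest Masliner-normalised natural-log median intensity across replicate spots of either probe orientation.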

Sequence	gcPBM binding intensity (ln)
CCTCATATTATAGACACACACAAAAAAAATAAAAAA [CACACA_site180]	7.25
TCATTATTATATAATTGTACATAATAATTATATCCA [XGTACX_site1801]	6.95
ATGTATGTGTATATATGTACATAATATATATCTTTT [XGTACX_site8666]	7.04
AGGTGCAAAAATAAAACATGCAAAAATAAAAATGAA [TGCATGCA_site502]	9.93
AATAATTAAATAAGAGTGCATGAAACAGGAAATTTC	8.31
TAATAAAAAATATATACACACAAATAAATAAATAAA [CACACA_site4037]	7
AATAGTCGTGTGCATACACACCTTAACTATAATATA [CACACA_site6636]	7.41
AAGAAATAAAGCAAAACATGCACTCGAAAATGTTTT [TGCATGCA_site1014]	7.85
TTAGCAACTATTACTACACACATTTTTATATAACTT [CACACA_site6762]	6.86
TATTGTTAAAATGAATAATTAAAACAGTAATGAATA [XGTACX_negctrl_site170]	6.81
TATATATGTTTTTATGTACACACTTTTAACCTAAGA [CACACA_site1149]	7.36
ATGTCTAATTTTGATGCACACTTTTGTGCAATTAAA [CACACA_site5589]	8.91
CGCATGCAATGTTAATGTACATATATATATATATGT [XGTACX_site3316]	8.05
TATTATATTATGTGATGTACATATTTATATAGGCCC [XGTACX_site4746]	7.26
ATTTATTGACTATTTACACACATATTTATTAAAATA [CACACA_site4980]	7.22
TACGCTCCCAGACACACACACACACCGATATAATAT [CACACA_site8098]	7.38
TATTACATACCTTATTGTACAAATTATATATTAAAG [XGTACX_site7334]	7.31
ACAGTATCTGGTAGCTGTACGAGTCGTAGAGAGTAG [XGTACX_site2041]	7.55
ATTCAGTTATATAATACACACATATATTGACATTAT [CACACA_site2723]	7.28

Sequence	gcPBM binding intensity (ln)
TGTAAGCACATACAAACACACAACATTATTTTTATC [CACACA_site2186]	6.97
TAGTATAATATGAACACACACACACGCACAAAAAAA [CACACA_site7035]	7.22
ATCGTTATATAAAAATGTACTTATAAATTGTATACA [XGTACX_site6664]	7.23
CAACATTTGATAAACACACAGAAGTATAAATATATA [CACACA_site2365]	6.84
AAAGGAAAAATCCAAGTGCATTATTATTTTCACAAA [GTGCAC_site9995]	9.1
TTTTTTTTTTTTTGATGTACAATTAATATTATAAAA [XGTACX_site6969]	7.04
ATTTCTTTTTTATTGAGTACATATGACCATGTTCAA [XGTACX_site5365]	7.38
CATTTTAAAGAAAATACACACAAAAATAGATATATA [CACACA_site6773]	6.86
AGTAATAAATAATTTACACACATATTATATCATCAC [CACACA_site1890]	7.02
GAAAAAAATGAAATTAGTACTTATCTTAAATTTTTA [XGTACX_site1018]	6.74
AAAAATATATAATAAAGTACACATAAATGAATAAAT [XGTACX_site329]	7.12
TTTTCCCTCTTATTCACACAAAAAAAATAAAATAAA [CACACA_site4656]	7.25
TATTTATTTTTTTTTGTGCACTTAATATAATCTTAC	10.4
ACACTAACATCATATCGTACATTTGTTAATTTATAA [XGTACX_site8654]	7.42
TTTTTATTTATATGATACTTATATATATATATATAT [CACACA_negctrl_site462]	9.5
TTCTTAATATTGCATGCACACTATATAATAATTGAA [CACACA_site4720]	8.15
TCTTTTAAAAAAATTTGTACATATTTTTTGTATTAT [XGTACX_site67]	7.22
TGTTCTTTGTTCAGCGCATGTAAAATAAAATAAAAT [TGCATGCA_site629]	7.47
TTTTTTTTTGAATACAGTACACAAGTGTTAAGTTTA [XGTACX_site7069]	6.77

Sequence	gcPBM binding intensity (ln)
GATTGATTATATGTGTGTACTTATATGTTAAAAAAA [XGTACX_site4784]	7.29
TATGAATATCTATACACACACATATATATACCCACT [CACACA_site4963]	7.07
GAAAGAATAAAATTTACACACATATAAATATACATA [CACACA_site7125]	6.89
AAAGGTGTCATATATGCACACAAAAGTAACACGCAC [CACACA_site8051]	8.81
TTTATTCTTGAGTATTGTACATATGTGTTTGTATAT [XGTACX_site5706]	7.32
AGGAGGATGCATATGGCACACATTATGAAACTGTCG [CACACA_site299]	7.23
TATATATATATATGTAGTACTCAATATTGTAGATTA [XGTACX_site3856]	9.64
AAATATATGTATATATGTACATATGTGTGCTATCAT [XGTACX_site1604]	7.27
TAATTTTTTTTTAATTGTACATGTGAATATATTTCA [XGTACX_site4115]	6.8
GTTTACATTTTAAGAAGTACAAAATTTATGGTTAAA [XGTACX_site450]	7.29
ATACATACAAAAATTTGTACATATTTCCAATAATGT [XGTACX_site2658]	6.96
GAAAAAACGAAAAAAATACACACCTGAAAAGATATG [CACACA_site887]	6.78
GCCATAATATGACATACACACACAAAAAAAAAAAAA [CACACA_site8353]	7.07
AAATTTCCATTTGGGTGTACATGTGAAACTACAAAG [XGTACX_site208]	7.15
AAACAATTGAATAAATGTACAGATACATTTTTTTAA [XGTACX_site5386]	6.76
TATTTATCTATTTTGTTATATAATAAAATAAAATAA [CACACA_negctrl_site281]	6.86
AAAAATAAACAAAATTGTACACATTACATACATATA [XGTACX_site966]	7.01
AAGAAAAGAACAAGAGCATGCACTTAATAAGAATAA [TGCATGCA_site818]	7.51
TTAATATATTTTAAAAGTACATAATATTATTTTTTA [XGTACX_site3642]	6.9
